{"source": "paper PMC4336329", "about": "(PLoS ONE, 2015)", "note": "In all, about 310,000 compounds went through this assay and about 14,000 (4.5%) showed an effect of 50% or more. Effects have a minus sign here. The list shows a part of the results.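 Note: peak tail current of the secondary pulse compared with the same well before compound.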", "data": [{"biological_target": "human ether-à-go-go-related gene (hERG) potassium channel (human, UniProt Q12809)", "sequence (Q12809 whole entry, looked up)": "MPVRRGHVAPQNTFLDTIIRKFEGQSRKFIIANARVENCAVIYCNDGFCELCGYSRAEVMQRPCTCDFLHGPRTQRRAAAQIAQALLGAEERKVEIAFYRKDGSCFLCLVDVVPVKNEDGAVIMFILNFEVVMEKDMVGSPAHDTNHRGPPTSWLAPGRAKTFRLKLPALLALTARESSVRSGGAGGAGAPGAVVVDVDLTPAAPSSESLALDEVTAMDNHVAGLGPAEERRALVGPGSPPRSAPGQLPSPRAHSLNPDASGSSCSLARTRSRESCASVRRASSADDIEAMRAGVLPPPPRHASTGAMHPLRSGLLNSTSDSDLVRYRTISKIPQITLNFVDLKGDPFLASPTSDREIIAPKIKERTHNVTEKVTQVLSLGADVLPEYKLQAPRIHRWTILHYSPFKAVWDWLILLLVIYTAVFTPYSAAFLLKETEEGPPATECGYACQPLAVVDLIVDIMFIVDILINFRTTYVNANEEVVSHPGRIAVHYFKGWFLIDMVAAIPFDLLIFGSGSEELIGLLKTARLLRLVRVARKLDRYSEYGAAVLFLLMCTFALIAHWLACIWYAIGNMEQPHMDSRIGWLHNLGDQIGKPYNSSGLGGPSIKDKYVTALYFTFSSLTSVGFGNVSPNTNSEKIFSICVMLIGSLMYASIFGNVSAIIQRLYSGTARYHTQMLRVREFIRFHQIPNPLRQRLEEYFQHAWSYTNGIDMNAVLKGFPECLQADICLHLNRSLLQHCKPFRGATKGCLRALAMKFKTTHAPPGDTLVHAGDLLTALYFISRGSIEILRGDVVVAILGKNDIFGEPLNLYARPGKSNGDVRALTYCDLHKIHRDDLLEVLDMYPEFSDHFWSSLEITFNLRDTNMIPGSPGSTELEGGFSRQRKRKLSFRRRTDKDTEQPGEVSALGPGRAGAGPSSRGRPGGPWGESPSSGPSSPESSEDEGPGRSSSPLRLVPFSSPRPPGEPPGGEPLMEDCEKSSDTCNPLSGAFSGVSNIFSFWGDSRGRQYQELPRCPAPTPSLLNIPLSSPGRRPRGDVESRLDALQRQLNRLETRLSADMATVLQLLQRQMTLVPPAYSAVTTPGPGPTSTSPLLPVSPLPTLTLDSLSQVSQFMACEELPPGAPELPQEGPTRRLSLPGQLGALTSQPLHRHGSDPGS", "assay": "primary screen, population patch clamp on CHO cells stably expressing hERG", "units": {"hERG current change (%, negative = inhibition) at 10uM": "%"}, "values": [{"compound": "COc1ccc(OC)c(NC(=O)COC(=O)Cn2nnc(-c3ccccc3)n2)c1", "hERG current change (%, negative = inhibition) at 10uM": 2.66}, {"compound": "OCCN(CC(O)COc1ccccc1)CC(O)Cn1ccc2ccccc21", "note": "(stereo not drawn)", "hERG current change (%, negative = inhibition) at 10uM": -32.5}, {"compound": "CC(NC(=O)c1ccccc1F)c1nnc(SCC(=O)NC2CCCCC2)n1C", "note": "(stereo not drawn)", "hERG current change (%, negative = inhibition) at 10uM": 21.5}, {"compound": "CC(=O)Oc1ccccc1-n1c(C)nc(=O)c(-c2ccccc2)c1C", "hERG current change (%, negative = inhibition) at 10uM": -4.2}, {"compound": "Cc1cc(C)n(-c2nc3c(c(=O)[nH]c(=O)n3C)n2CC(O)c2ccccc2)n1", "note": "(stereo not drawn)", "hERG current change (%, negative = inhibition) at 10uM": -8.07}, {"compound": "CS(=O)(=O)N1CCC(C(=O)N2CCN(c3ccc(F)cc3)CC2)CC1", "hERG current change (%, negative = inhibition) at 10uM": 2.03}, {"compound": "COc1ccc(/C=N/NC(=O)c2ccc(=O)n(C)c2)cc1OC", "hERG current change (%, negative = inhibition) at 10uM": 17.6}, {"compound": "CCC(C)(C)NC(=O)c1cc([N+](=O)[O-])ccc1N1CCOCC1", "hERG current change (%, negative = inhibition) at 10uM": -37.3}, {"compound": "CCc1ccc(N(CC)C(=O)c2ccc3c(Cl)c4c(nc3c2)CCC4)cc1", "hERG current change (%, negative = inhibition) at 10uM": 0.386}, {"compound": "Cc1ccc(C(=O)Cn2nc(C(=O)O)c3ccccc3c2=O)cc1C", "hERG current change (%, negative = inhibition) at 10uM": 24.4}, {"compound": "Cc1ccc(C)c(OCCNc2ccc([N+](=O)[O-])cn2)c1", "hERG current change (%, negative = inhibition) at 10uM": 1.78}, {"compound": "Cc1ccc(CN2CCN(CC(=O)NCc3ccc(Cl)cc3)C2=O)cc1", "hERG current change (%, negative = inhibition) at 10uM": -50.4}, {"compound": "CCOc1ccccc1OCCCC(=O)N(CC)CC(=O)Nc1c(F)cccc1F", "hERG current change (%, negative = inhibition) at 10uM": -1.78}, {"compound": "CC(=O)C(=Cc1ccc(O)cc1)C(C)=O", "hERG current change (%, negative = inhibition) at 10uM": 17.3}, {"compound": "CC1(C)Cc2c(C#N)c(SCC(=O)c3ccccc3)nc(N3CCOCC3)c2CS1", "hERG current change (%, negative = inhibition) at 10uM": 3.44}, {"compound": "OCCCn1c(CCCNc2nc(-c3cccc(Br)c3)cs2)nc2cc(Cl)c(N3CCCCC3)cc21", "hERG current change (%, negative = inhibition) at 10uM": 1.7}, {"compound": "CCOC(=O)c1cc(C#N)c(N2CCN(C)CC2)nc1-c1ccccc1", "hERG current change (%, negative = inhibition) at 10uM": -49.2}, {"compound": "O=C(CSCc1ccccc1Cl)NCCSc1ccccn1", "hERG current change (%, negative = inhibition) at 10uM": 10.6}, {"compound": "Cc1cccc(/C=N/n2c(-c3cc(-c4ccccc4)n[nH]3)n[nH]c2=S)c1", "hERG current change (%, negative = inhibition) at 10uM": 16.4}, {"compound": "CC(=O)N1c2ccc(S(=O)(=O)NCc3ccco3)cc2CC1C", "note": "(stereo not drawn)", "hERG current change (%, negative = inhibition) at 10uM": -7.2}, {"compound": "CCC(=O)Nc1ccc(/C(C)=N\\NC(=O)c2ccc(OC)cc2)cc1", "hERG current change (%, negative = inhibition) at 10uM": -1.87}, {"compound": "CCN(CCN(C)C)C(=O)c1ccc2c(c1NCCO)C(=O)c1ccccc1C2=O", "hERG current change (%, negative = inhibition) at 10uM": -35.5}, {"compound": "O=C(CCN1C(=O)/C(=C\\c2ccccc2)SC1=S)NNC(=O)c1ccncc1", "hERG current change (%, negative = inhibition) at 10uM": 20.3}, {"compound": "CCOC(=O)c1nnsc1Nc1ccc(C)c(C)c1", "hERG current change (%, negative = inhibition) at 10uM": 23.3}, {"compound": "CC(C)C(NC(=S)NCc1ccccc1)C(=O)O", "note": "(stereo not drawn)", "hERG current change (%, negative = inhibition) at 10uM": 11.3}, {"compound": "Cc1cccnc1-n1c(C)nc2ccccc2c1=O", "hERG current change (%, negative = inhibition) at 10uM": 7.13}, {"compound": "CC(C)(C)n1nnnc1CN1CCC(NC(=O)NC2CCCCC2)CC1", "hERG current change (%, negative = inhibition) at 10uM": -11.3}, {"compound": "Cn1cc(SCC(=O)N2CCN(c3ccccc3)CC2)c2ccccc21", "hERG current change (%, negative = inhibition) at 10uM": -8.45}, {"compound": "COc1ccc(-c2cc3c(nn2)-c2ccccc2C3=O)cc1", "hERG current change (%, negative = inhibition) at 10uM": 6.02}, {"compound": "COc1ccc(OC)c(N(CC(=O)Nc2ccc3c(c2)OCCO3)S(C)(=O)=O)c1", "hERG current change (%, negative = inhibition) at 10uM": 9.64}, {"compound": "CCOC(=O)c1c(C)[nH]c(C(=O)CC(=O)OC)c1C", "hERG current change (%, negative = inhibition) at 10uM": 22.4}, {"compound": "Fc1ccc(-c2nnc(SCc3cccnc3)o2)cc1", "hERG current change (%, negative = inhibition) at 10uM": -3.91}, {"compound": "O=C(Nc1nnc(-c2cccnc2)o1)c1cccc([N+](=O)[O-])c1", "hERG current change (%, negative = inhibition) at 10uM": 13.8}, {"compound": "O=C(Nc1cc(Cl)cc(Cl)c1)c1cccc(OC(F)F)c1", "hERG current change (%, negative = inhibition) at 10uM": -2.79}, {"compound": "COc1ccc(C(=O)Nc2c(N)nc(SCC(=O)Nc3ccc(NC(C)=O)cc3)[nH]c2=O)cc1", "hERG current change (%, negative = inhibition) at 10uM": 21.9}, {"compound": "COc1ccc(C2=NN(C(=O)CSc3nc(=O)n4cc(C)ccc4n3)C(c3ccc(C)cc3)C2)cc1", "note": "(stereo not drawn)", "hERG current change (%, negative = inhibition) at 10uM": -16.2}, {"compound": "CC(=O)N1[C@H](C)C=C[C@]1(Cc1ccccc1)C(=O)O", "hERG current change (%, negative = inhibition) at 10uM": 14.8}, {"compound": "CC1(C)C(c2ccco2)=[N+]([O-])C2(CCCCC2=O)N1O", "note": "(stereo not drawn)", "hERG current change (%, negative = inhibition) at 10uM": 6.75}, {"compound": "Cc1ccc(NC(=O)COC(=O)[C@H](C)NC(N)=O)c(C)c1", "hERG current change (%, negative = inhibition) at 10uM": 15.1}, {"compound": "O=C(c1ccccc1)N1CCN(S(=O)(=O)N2CCOCC2)CC1", "hERG current change (%, negative = inhibition) at 10uM": 16.8}, {"compound": "Cc1cc(C)nc(SCc2ccc3nonc3c2)n1", "hERG current change (%, negative = inhibition) at 10uM": -9.11}, {"compound": "CCOc1ccc(/C=N/OCC(=O)NCc2ccc3c(c2)OCO3)cc1OC", "hERG current change (%, negative = inhibition) at 10uM": 14.8}, {"compound": "Cn1c(=O)cc(OCC(=O)NCc2cccnc2)c2ccccc21", "hERG current change (%, negative = inhibition) at 10uM": -2.8}, {"compound": "Cc1ccc(NC(=O)CSc2nc(=O)n(CCCN3CCOCC3)c3c2CCCC3)cc1F", "hERG current change (%, negative = inhibition) at 10uM": -50.2}, {"compound": "NNC(=O)c1cc(-c2cccs2)nc2ccccc12", "hERG current change (%, negative = inhibition) at 10uM": -2.34}, {"compound": "Cc1cccn2c(=O)nc(SCC(=O)N3CCCCC3)nc12", "hERG current change (%, negative = inhibition) at 10uM": -18.6}, {"compound": "O=C(Nc1cccc(C(F)(F)F)c1)c1cnc2n(c1=O)CCS2", "hERG current change (%, negative = inhibition) at 10uM": 6.8}, {"compound": "CCc1cccc(CC)c1NC(=O)COC(=O)C1(c2ccc(Cl)cc2)CCCC1", "hERG current change (%, negative = inhibition) at 10uM": 14.2}, {"compound": "COCCCN1C(=O)N(c2ccc(F)cc2)C(=O)C1CC(=O)Nc1ccccc1", "note": "(stereo not drawn)", "hERG current change (%, negative = inhibition) at 10uM": 10.7}, {"compound": "CCCC(=O)c1c(NC(C)C)cc(C)oc1=O", "hERG current change (%, negative = inhibition) at 10uM": 10.7}, {"compound": "CCSc1oc(-c2ccco2)nc1S(=O)(=O)c1ccc(C)cc1", "hERG current change (%, negative = inhibition) at 10uM": -3.01}, {"compound": "Cc1c(Br)c(O)c(Br)c2sc(=O)oc12", "hERG current change (%, negative = inhibition) at 10uM": 11.9}, {"compound": "O=C(Nc1cccc2c1CCCC2)C1CCN(c2nnnn2-c2ccccc2)CC1", "hERG current change (%, negative = inhibition) at 10uM": -6.61}, {"compound": "COc1cccc(N2CCN(c3nc(C)c(C)c(=O)[nH]3)CC2)c1", "hERG current change (%, negative = inhibition) at 10uM": 5.02}, {"compound": "CCOc1cc(C2C(C(=O)N3CCCCC3)=C(C)NC3=C2C(=O)CC(C)(C)C3)ccc1O", "note": "(stereo not drawn)", "hERG current change (%, negative = inhibition) at 10uM": -1.34}, {"compound": "CCOCCCNc1ccc(N2C(=O)CCCC2=O)cc1[N+](=O)[O-]", "hERG current change (%, negative = inhibition) at 10uM": 22.7}, {"compound": "COc1ccc(C)cc1S(=O)(=O)Nc1ccc(F)c(Cl)c1", "hERG current change (%, negative = inhibition) at 10uM": -6.06}]}]}
